We go through 60 compounds from PubChem BioAssay AID1159614 (National Center for Advancing Translational Sciences (NCATS), 2016).

Molecules are shown by their SMILES. About 65 (0.1%) of roughly 45,000 compounds were called active. Calls follow the shape of the dose curve; as a rule, active = well fitted activation curve with a large enough effect; inconclusive = small, poorly fitted or top-dose-only effect; inactive = no such curve, though single readings can be large or run the other way. This is one part of the list.

This experiment addresses Galactocerebrosidase (Homo sapiens) (UniProt P54803). The experiment is described as follows: A Novel Cell-Based Assay to Identify Small Molecules for B -Galactocerebrosidase. Also: 0% is about no effect; nearly all actives have a fitted effect of over 65% in size. The following applies: 145M-Twi-hGALC-G270D cells, HMU-beta-Gal fluorescence, 48 h; series mostly up to 57.5 µM; activation: at the top concentration. In a few lines: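 qHTS, 1536-well; 145M-Twi-hGALC-G270D cells (WT line also made) in DMEM/F12 + 10% FBS; compound incubation on live cells; HMU-β-gal 0.1 mM final, pH 5.2, NaTC; carbonate stop; fluorescence increase = enhanced residual activity.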
Chain of UniProt P54803 (P54803 whole entry, looked up): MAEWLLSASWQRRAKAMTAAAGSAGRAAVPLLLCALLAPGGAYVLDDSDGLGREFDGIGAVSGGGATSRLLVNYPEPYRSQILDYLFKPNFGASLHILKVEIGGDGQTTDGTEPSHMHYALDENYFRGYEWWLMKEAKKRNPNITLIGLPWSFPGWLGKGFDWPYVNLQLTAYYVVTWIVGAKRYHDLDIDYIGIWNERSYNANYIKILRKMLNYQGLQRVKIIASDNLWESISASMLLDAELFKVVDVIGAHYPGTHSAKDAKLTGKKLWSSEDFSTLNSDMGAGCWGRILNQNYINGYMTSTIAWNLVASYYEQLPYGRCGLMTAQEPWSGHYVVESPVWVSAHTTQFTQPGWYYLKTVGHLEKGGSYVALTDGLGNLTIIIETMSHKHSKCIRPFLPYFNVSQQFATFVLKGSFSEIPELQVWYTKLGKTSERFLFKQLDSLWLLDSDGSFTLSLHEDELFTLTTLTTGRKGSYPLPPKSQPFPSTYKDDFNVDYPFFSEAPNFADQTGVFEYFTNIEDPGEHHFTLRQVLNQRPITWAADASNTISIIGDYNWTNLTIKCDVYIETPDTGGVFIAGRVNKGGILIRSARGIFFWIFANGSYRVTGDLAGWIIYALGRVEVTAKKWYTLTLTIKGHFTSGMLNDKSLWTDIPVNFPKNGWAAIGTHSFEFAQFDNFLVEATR
For the compound `Cc1ccc(Cl)cc1N(C)C(=O)Cn1nc(Cc2cccnc2)c2ccccc2c1=O`, the “activation” value is inactive: -28.7%. The result for `O=C(NCc1ccco1)C1CCN(C(=O)N2CCOc3ccccc32)CC1` reads inactive: -14.7%; that for `Cc1cc(C)cc(OC(C)C(=O)Nc2nonc2-c2ccc(Br)cc2)c1` (stereo not given), inactive: -11%; that for `O=C(Nc1cccc(C(=O)OCc2cc(=O)n3nc(C4CC4)sc3n2)c1)c1ccccc1`, inactive: 10.5%. In the case of `Cc1ccc(C)c(Cn2c3ccccc3c3cnn(CC(=O)NCCCc4ccccc4)c(=O)c32)c1`, the “activation” value is inactive: 5.2%. Under `CCOc1ccc(-c2nonc2NC(=O)c2oc3c(C)c(C)ccc3c2C)cc1OCC` stands inactive: -26.4%; under `COCCn1c(CNC(=O)c2ccc(C)cc2)nc2cccnc21`, inactive: -9.3%.

In the case of `COc1ccccc1-c1nc2c3c(-c4ccccc4)c(-c4ccccc4)oc3ncn2n1`, the “activation” value was inactive: -12.7%.

With `CCN(CC)CCOC(=O)c1ccc(NC(=O)Cn2ncc3c([nH]c4ccc(C)cc43)c2=O)cc1`, the “activation” value was inactive: -6.42%. On to `Cc1ccccc1CS(=O)(=O)CC1Nc2ccc(C(=O)NCc3ccc(Cl)cc3)cc2NC1=O` (stereo not given), for which the “activation” value was inactive: -11%. As for `Cc1ccc(-n2nc(C)c(C(=O)NCCCN3CCN(c4ccc(F)cc4)CC3)c2-n2cccc2)cc1`, the “activation” value was inactive: -25.9%.

Take `CCN(c1cccc(C)c1)S(=O)(=O)c1nnc(NC(=O)C2CCCCC2)s1`: the “activation” value is inactive: -10.1%. For `O=C(CSC1=Nc2ccccc2C2=NC(CC(=O)NC3CCCCC3)C(=O)N12)Nc1ccc(F)cc1` (stereo not given), the “activation” value was inactive: -17.9%.

As for `O=C(CSc1nc2ccccc2nc1Cc1ccc(Cl)cc1)N1CCc2ccccc21`, the “activation” value was inactive: 25.4%. Take `Cc1ccc(-c2nc(C)c(CCNC(=O)c3ccco3)s2)cc1`: the “activation” value was inactive: -7.91%. With `CCc1ccc(CNC(=O)CN2C(=O)c3cccnc3Oc3ccc(Cl)cc32)cc1`, the “activation” value was inactive: -0.574%.

Regarding `CCOc1ccc(NC(=O)CSc2ncc3c(n2)-c2ccc(Cl)cc2N(Cc2ccccc2)S3(=O)=O)cc1`, the “activation” value is inactive: -15.1%. As to `COc1ccc(-c2nc3sc(CCNC(=O)c4cc(OC)c(OC)c(OC)c4)c(C)n3n2)cc1`, the “activation” value is inactive: -17.2%. Regarding `COC(=O)c1nc2n(n1)C(c1cccc(Cl)c1)C(C(=O)Nc1ccccc1OC)=C(C)N2` (stereo not given), the “activation” value is inactive: -9.45%. Under `Cc1cccc(C)c1NC(=O)C(NS(=O)(=O)c1ccc2c(c1)CCC(=O)N2)c1ccccc1` (stereo not given) stands inactive: -16.9%; under `Cc1c2cnn(-c3ccccc3)c(=O)c2c(C)n1CCCC(=O)Nc1cc(F)ccc1F`, inactive: 2.07%. Under `CCOc1ccc(C2c3[nH]c4ccccc4c3CCN2C(=O)CCc2ccccc2)cc1` (stereo not given) stands inactive: -2.29%; under `COc1ccc(C)cc1NC(=O)c1oc2ccc(S(=O)(=O)N3CCCCC3)cc2c1C`, inactive: -4.21%; under `Cc1ccc(C)c(N2CCN(S(=O)(=O)c3cc(Br)cc4c3N(C(=O)C3CC3)CC4)CC2)c1`, inactive: -8.05%. Regarding `COc1ccc(-n2c(SCC(=O)Nc3ccc(Cl)c(C)c3)nc3n[nH]c(C)c3c2=N)cc1`, the “activation” value was inactive: -16%. As to `Cc1ccc2[nH]c(CSc3nnc(NC(=O)COc4ccccc4)s3)cc(=O)c2c1`, the “activation” value is inactive: -5.28%. As for `CCOC(=O)c1c(NC(=O)c2ccc(S(=O)(=O)N3CCC(C)CC3)cc2)sc2c1CCN(C)C2`, the “activation” value is inactive: 1.61%. Turning to `NC(=O)c1c(NC(=O)c2nc(SCc3ccccc3F)ncc2Cl)sc2c1CCCC2`, the “activation” value is inactive: -7.84%. The result for `Cc1ccc(Sc2c(C)nn(C(=O)COc3ccccc3Br)c2C)cc1` reads inactive: -23.9%; that for `COc1cc(C(=O)NCCCc2nc3ccccc3n2CC(C)C)cc(OC)c1OC`, inactive: 3.64%. Under `O=C(C1CCN(S(=O)(=O)c2ccc(Br)s2)CC1)N1CCN(c2cccc(Cl)c2)CC1` stands inactive: -13.9%. For the compound `Clc1ccc2c(c1)Nc1ccccc1S2`, the “activation” value is inactive: -12.7%. On to `CCOC(=O)c1ccc(NC(=O)CCn2c(=O)c3cccn3c3ccccc32)cc1`, for which the “activation” value was inactive: -13.5%. Regarding `CCOc1ccc(CCNC(=O)c2sc3nc4n(c(=O)c3c2C)CCCC4)cc1OCC`, the “activation” value was inactive: -26.4%. On to `CCS(=O)(=O)N1CCc2cc(C(=O)Nc3ccc(OC)c(Cl)c3)ccc21`, for which the “activation” value was inactive: -14.2%. Under `CCCCn1cc(S(=O)(=O)c2ccc(C)c(C)c2)c(=O)c2cc(F)c(N3CCCC(C)C3)cc21` (stereo not given) stands inactive: -14.9%; under `COc1ccc(OC)c(CNC(=O)c2nn(-c3ccc(OC)c(Cl)c3)c(=O)c3c2c2ccccc2n3C)c1`, inactive: -19.6%. Regarding `CCOc1ccc2nc(N3CCCC(C(=O)Nc4c(C)cccc4C)C3)sc2c1` (stereo not given), the “activation” value was inactive: -13.9%. The result for `Cc1cc(C)cc(-n2ccnc2SCC(=O)Nc2nnc(C)s2)c1` reads inactive: -18.5%. For `CCOC(=O)c1sc2ncn(CC(=O)Nc3ccc(N(C)C)cc3)c(=O)c2c1C`, the “activation” value is inactive: -7.67%. Take `O=C(Nc1nc2ccc(S(=O)(=O)N3CCCC3)cc2s1)c1cccc(F)c1`: the “activation” value was inactive: -5.3%.

`CCC(=O)Nc1c(C(=O)N2CCN(c3ccc(F)cc3)CC2)oc2ccccc12`: the “activation” value was inactive: -10%. For `COc1ccc(S(=O)(=O)n2nc(C)c(S(=O)(=O)N3CCC(C)CC3)c2C)cc1C`, the “activation” value was inactive: 4.98%. Under `COc1ccc(CCNS(=O)(=O)c2ccc3c(c2)CC(C)N3C(=O)C2CCC2)cc1OC` (stereo not given) stands inactive: -12.3%; under `CCOc1ccc(CC(=O)NCCc2csc(-c3ccc(C)cc3)n2)cc1`, inactive: -9.07%. Turning to `CCOc1ccc(N(C(=O)CC(C)C)S(=O)(=O)c2ccc3c(c2)oc(=O)n3C)cc1`, the “activation” value is inactive: 1.95%. Take `Cc1ccc(-c2nc3scc(CCNC(=O)Cc4ccc(Cl)cc4)n3n2)cc1`: the “activation” value is inactive: -9.57%. For the compound `Nc1nc2ccccc2n1Cc1ccc(F)cc1`, the “activation” value was inactive: -7.28%.

On to `COc1ccc(CCNC(=O)CCCn2c(=O)c3ccccc3n(Cc3cccc(Cl)c3)c2=O)cc1OC`, for which the “activation” value is inactive: 3.87%. The result for `Cc1ccc(NC(=O)Cn2cc(C(=O)C3CC3)c3ccccc32)cc1` reads inactive: -27.9%; that for `COc1ccc(NC(=O)Cn2nnc(C(=O)Nc3ccc(F)c(Cl)c3)c2N)cc1OC`, inactive: -17%. Under `COc1ccc(-c2noc(CN(C(=O)COc3cc(C)c(Br)c(C)c3)C(C)C)n2)cc1` stands inactive: -34.1%. Turning to `Cn1c(SCc2ccc(F)cc2)nc2ccc(C(=O)NCc3ccc(Cl)cc3)cc21`, the “activation” value was inactive: 0.296%. As to `CCN(CC)c1ccc(NS(=O)(=O)c2ccc(-c3cnc(C4CC4)o3)cc2)c(C)c1`, the “activation” value is inactive: -15.7%. Take `O=C1NCCN(Cc2ccc(F)cc2)C1=O`: the “activation” value was inactive: -9.87%. In the case of `CCC1CN(C(=O)N2CCC(C(=O)NCCc3ccc(Cl)cc3)CC2)c2ccccc2O1` (stereo not given), the “activation” value was inactive: -8.53%. For `CCCn1c(SCc2nc(-c3ccc(OC)cc3OC)no2)nnc1-c1ccc(Cl)cc1`, the “activation” value was inactive: -14.6%. As to `Cc1cccc(C)c1NC(=O)CSc1nc(-c2ccccc2)nc2c1Cc1c(CO)cnc(C)c1O2`, the “activation” value was inactive: -14.1%. Under `CCc1ccc(S(=O)(=O)c2cn(CC(=O)Nc3ccc(C)cc3)c3ccccc3c2=O)cc1` stands inactive: -8.57%; under `CCOC(=O)c1[nH]c2c(c1Cc1ccccc1)C(=O)CC(c1ccc(Cl)cc1)C2` (stereo not given), inactive: -15.5%.
